According to publication PMC12136788:
Some of the results follow.

T1: UNK ZnF1-6 (called full-length) (human, UniProt Q9C0B0 30-357)
T1 sequence: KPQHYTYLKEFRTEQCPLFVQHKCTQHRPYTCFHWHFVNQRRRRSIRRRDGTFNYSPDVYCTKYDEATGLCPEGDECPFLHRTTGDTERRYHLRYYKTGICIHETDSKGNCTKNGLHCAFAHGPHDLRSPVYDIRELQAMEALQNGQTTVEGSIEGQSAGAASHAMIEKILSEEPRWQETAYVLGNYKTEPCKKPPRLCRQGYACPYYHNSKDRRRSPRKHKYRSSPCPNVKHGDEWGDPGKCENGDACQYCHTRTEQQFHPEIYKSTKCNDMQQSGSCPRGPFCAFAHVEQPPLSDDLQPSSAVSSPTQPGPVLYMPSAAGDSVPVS

B1: ENSG00000198589:be:win_401|CDS|ENSG00000198589|bound_else_gene|NA|bound_elsewhere_windowed (ssRNA)
RNA: GGGAGUUCUACAGUCCGACGAUCUUGAAAAAGUGCUUGGGAAAAUUGAAAAAGUUGACAAUAUGAUAGCAGAUCUUUUGGUUGACAUGUUGGGAGUGCUGGCUAGCUAUAAUUUGACAGUUCGCGAGCUAAAGCUUUUCUUCACAACAGAGGAUUGAGCAUCA
B2: chr19:3610644:3612413:-|three_prime_utr|ENSG00000105298|control|control|control (ssRNA)
RNA: GGGAGUUCUACAGUCCGACGAUCAGGGGGGUCACCAUUGAGCCUGCCAUGGUGAGCUGAGGAGACACUGGGACAGGCUGGCCUAGGGUCCUGAUGCAACGGAGGGGGCGCUAGGGGCAUCUUUCGAGCACGAGGGUGGCCAGCCAACAGAGGAUUGAGCAUCA
B3: ENSG00000070961:be:win_2501|CDS|ENSG00000070961|bound_else_gene|NA|bound_elsewhere_windowed (ssRNA)
RNA: GGGAGUUCUACAGUCCGACGAUCACUUUACAAGCAUUGUUAAAGCAGUUAUGUGGGGACGAAAUGUCUAUGACAGCAUCUCAAAAUUCCUUCAGUUCCAACUUACUGUUAAUGUAGUAGCAGUGAUUGUUGCUUUUACGGGCGCAACAGAGGAUUGAGCAUCA
B4: chr15:25371268:25371377:-|CDS|ENSG00000114062|unk|FALSE|unique (ssRNA)
RNA: GGGAGUUCUACAGUCCGACGAUCCACAAUGUAUACUCUCGAGAUCCUAAUUAUCUGAAUUUGUUCAUUAUCGUAAUGGAGAAUAGAAAUCUCCACAGUCCUGAAUAUCUGGAAAUGGCUUUGCCAUUAUUUUGCAAAGCGAUGCAACAGAGGAUUGAGCAUCA
B5: chr17:48622902:48623135:-|CDS|ENSG00000170689|control|control|control (ssRNA)
RNA: GGGAGUUCUACAGUCCGACGAUCUACCAGACGCUGGAGCUAGAGAAGGAGUUUCUGUUCAAUAUGUACCUCACCAGGGACCGUAGGCACGAAGUGGCCAGACUCCUCAAUCUGAGUGAGAGACAAGUCAAAAUCUGGUUUCAGCAACAGAGGAUUGAGCAUCA
B6: chr20:35276351:35277713:-|three_prime_utr|ENSG00000126005|control|control|control (ssRNA)
RNA: GGGAGUUCUACAGUCCGACGAUCCUCCUCUCCCCACGUCCCUGCGUCUCUUACACCCCCUCCCACCCGAGGCUCCCCAGAGAUAGCAGAGAAUUCGAAGAGGUCGCCGGGGACUGGAAAGAAGUCCCGGCAGGGCCGCCUUCGCAACAGAGGAUUGAGCAUCA
B7: chr3:27376575:27376676:-|3pUTR|ENSG00000033867|msi1|FALSE|bound_elsewhere (ssRNA)
RNA: GGGAGUUCUACAGUCCGACGAUCCUAUAUAUAAGAAUAUUGUAUGUCAUGCUGUUUAUGUGUGACUACCGGGUUUUUAAAAGUAGUGUCUGGAGUUUGUAAUGAGCACCGUGGAGACUAUGUAUUUAAUGAAAUGCUCUCUUUCAACAGAGGAUUGAGCAUCA
B8: chr19:36448979:36450001:-|CDS|ENSG00000186017|control|control|control (ssRNA)
RNA: GGGAGUUCUACAGUCCGACGAUCCAGAGUUCACAGCUUAUUAGUCAUCAUAGAAUUCAUACUAGUGAGAAACCCUAUGAAUAUAGGGAAUGUGGAAAGAACUUUAAUUAUGACCCACAACUUAUUCAGCAUCAAAAUUUGUACCAACAGAGGAUUGAGCAUCA
B9: ENSG00000124766:be:win_551|CDS|ENSG00000124766|bound_else_gene|NA|bound_elsewhere_windowed (ssRNA)
RNA: GGGAGUUCUACAGUCCGACGAUCCGAGUGGCGGCGGCGCCAACUCCAAACCGGCGCAGAAAAAGAGCUGCGGCUCCAAAGUGGCGGGCGGCGCGGGCGGUGGGGUUAGCAAACCGCACGCCAAGCUCAUCCUGGCAGGCGGCGCAACAGAGGAUUGAGCAUCA
B10: chr15:83017406:83017507:-|3pUTR|ENSG00000064726|msi1|total|mutant (ssRNA)
RNA: GGGAGUUCUACAGUCCGACGAUCGGCCUAAUAAAAUGCCCAAGAAAAUAUUCAGUGCAUUUACCGAGAAGGAUAUUUUGCCGCCGUACCGUAAUGUGUUAUGCCGUACAGUUUUAAAGCUAUAAAUGGAAUUUUGUGUAAAUUCAACAGAGGAUUGAGCAUCA
B11: chr14:74942539:74942640:-|3pUTR|ENSG00000119630|msi1|FALSE|unique (ssRNA)
RNA: GGGAGUUCUACAGUCCGACGAUCGUGUAUUUAUUACCGUCACACUCUUCAGUGACUCCUGCUGGUACCUGCCCUCUAUUUAUUAGCCAACUGUUUCCCUGCUGAAUGCCUCGCUCCCUUCAAGACGAGGGGCAGGGAAGGACACAACAGAGGAUUGAGCAUCA
B12: chr18:722677:722778:-|3pUTR|ENSG00000176105|msi1|total|mutant (ssRNA)
RNA: GGGAGUUCUACAGUCCGACGAUCCCGCGCCCAGCCUACAUUCACUUCUAAAGUCUAUGUAAUGGUGGUCAUUUUUUCCCUUUCCGAAUACAUUAAAUGGUUGAUUUGGGGAGGAAAACUUAUUCUGAAUAUUAACGGUGGUGACAACAGAGGAUUGAGCAUCA
B13: chr22:39522180:39522281:+|CDS|ENSG00000128272|msi1|total|mutant (ssRNA)
RNA: GGGAGUUCUACAGUCCGACGAUCGCUUACGUUGCCAUGAUCCCUCAGUGCAUAAAGGAGGAAGACACCCCUUCAGAUAAUGACCGUGGCAUCUGUAUGAGCCCAGAGUCCUAUCUGGGGUCUCCUCAGCACAGCCCCUCUACCCAACAGAGGAUUGAGCAUCA
B14: chr9:37126384:37126485:+|CDS|ENSG00000147905|unk|FALSE|unique (ssRNA)
RNA: GGGAGUUCUACAGUCCGACGAUCUAUCGAGAUGAGUCAUCUAGUGAACUGAGUGUUGAUAGUGAGGUGGAAUUUCAACUCUAUAGCCAAAUUCAUUAUGCCCAAGAUCUUGAUGAUGUCAUCAGGGAGGAAGAGCAUGAAGAACAACAGAGGAUUGAGCAUCA

Each binder was assayed against T1, UNK ZnF1-6 (called full-length) (assay: nsRBNS (natural sequence RNA bind-n-seq); RBNS binding buffer (assumed for nsRBNS): 25 mM Tris pH 7.5, 150 mM KCl, 3 mM MgCl2, 0.01% Triton X-100, 500 ug/ml BSA, 20 U/ml SUPERase-In, 4 C; UNK is unkempt and MSI1 is Musashi-1; names of the RNAs are library labels; protein concentration not given here; high values mean tight binding).

| Binder | binding signal [enrichment R] |
| --- | --- |
| B1 | 0.3 |
| B2 | 1.42 |
| B3 | 0.313 |
| B4 | 0.516 |
| B5 | 0.572 |
| B6 | 0.869 |
| B7 | 0.448 |
| B8 | 1.15 |
| B9 | 0.701 |
| B10 | 0.415 |
| B11 | 0.781 |
| B12 | 0.385 |
| B13 | 0.659 |
| B14 | 0.566 |
